Where a name gives a salt, the structure may show the parent alone. ± gives the standard deviation of the averaged measurements. This is one part of the list.
System: OVCAR8
Experiment: cell count relative to DMSO vehicle (fold change); OVCAR8 is a high-grade serous ovarian cancer line and CX-5461 an RNA polymerase I inhibitor; higher = more surviving senescent cells (less killing)
Conditions: senescence inducer: CX-5461 3 µM 48 h, then 6 d recovery (CX senescent), exposure time 24 h

Row | SMILES | cell count (compound dose 1 µM) | cell count (compound dose 5 µM)
1 | CN1C(=O)[C@@H](NC(=O)c2cc(Cc3ccccc3)on2)COc2ccccc21 | 1.15 ± 0.28 | 1.24 ± 0.42
2 | COc1c(/C=C/C(=O)c2ccc(O)cc2)ccc(O)c1O [Licochalcone B] | 1 ± 0.1 | 0.905 ± 0.17
3 | O=C(NS(=O)(=O)c1ccc(Br)s1)c1ccc(Cl)cc1Cl [Tasisulam] | 0.954 ± 0.11 | 1.05 ± 0.13
4 | C/C(=N\NC(=O)c1cccc(S(=O)(=O)N2CCOCC2)c1)c1cc(Cl)ccc1O | 1.201 ± 0.011 | 1.17 ± 0.095
5 | C=CCSCC(N)C(=O)O (stereo unspecified) | 1.21 ± 0.12 | 1.21 ± 0.095
6 | CC(Nc1nc(N2CCCC2)nc2ccccc12)c1ccccc1 (stereo unspecified) [Importazole] | 1.17 ± 0.15 | 1.12 ± 0.088
7 | COc1cc2c(c(OC)c1OC)-c1c(cc3c(c1OC)OCO3)C[C@H](C)[C@H](C)C2 [Gomisin N] | 0.995 ± 0.078 | 1.008 ± 0.0057
8 | Nc1cccc2c1CN(C1CCC(=O)NC1=O)C2=O (stereo unspecified) [Lenalidomide] | 1.04 ± 0.1 | 1.08 ± 0.05
9 | CCOC(=O)C1=CCCC[C@H]1S(=O)(=O)Nc1ccc(F)cc1Cl [Resatorvid] | 1.01 ± 0.099 | 0.857 ± 0.014
10 | O=C(Nc1ccc(-c2ccnc(Nc3ccc(N4CCOCC4)cc3)n2)cc1)C1CCCN1 (stereo unspecified) | 1.07 ± 0.079 | 1.03 ± 0.16
11 | COc1nc(-c2ccc3c(c2)OCO3)n(-c2ccc(NC(=O)CSc3ccccc3)cc2)n1 [SecinH3] | 0.995 ± 0.1 | 0.941 ± 0.18
12 | Cc1ccc(NC(=O)Nc2nnc(Sc3ncnc4cc(OCCCN5CCOCC5)ccc34)s2)cc1 | 0.983 ± 0.015 | 0.93 ± 0.025
13 | O=NN(CCCl)C(=O)NC1CCCCC1 | 1.02 ± 0.25 | 1.12 ± 0.096
14 | CCc1cccc2c1N(C)Cc1cc3c(cc1-2)OCO3 | 1.13 ± 0.2 | 1.05 ± 0.2
15 | CCOc1cc(C(C)(C)C)ccc1C1=N[C@@](C)(c2ccc(Cl)cc2)[C@@](C)(c2ccc(Cl)cc2)N1C(=O)N1CCN(CC(=O)N2CCOCC2)CC1 [p53 and MDM2 proteins-interaction-inhibitor (chiral)] | 1.15 ± 0.24 | 0.986 ± 0.033
16 | O=c1c2cc(O)c(O)cc2oc2cc(O)c([C@@H]3O[C@H](CO)[C@@H](O)[C@H](O)[C@H]3O)c(O)c12 [Mangiferin] | 0.999 ± 0.26 | 1.05 ± 0.24
17 | Cn1c(=O)cc(N2CCC[C@@H](N)C2)n(Cc2ccccc2C#N)c1=O [Alogliptin (Benzoate)] | 1.2 ± 0.19 | 1.14 ± 0.093
18 | N[C@@H](CC(=O)N1CCN(C(c2ccc(F)cc2)c2ccc(F)cc2)CC1)C(=O)N1Cc2ccccc2C1 | 1.03 ± 0.22 | 1.06 ± 0.21
19 | C[C@@H]1CN(C(=O)Nc2ccc(-c3nc(N4CCOCC4)c4cnn(CCCCCCC(=O)NO)c4n3)cc2)CCO1 [HDACs/mTOR Inhibitor 1] | 0.612 ± 0.025 | 0.593 ± 0.043
20 | CNC(=O)Nc1ccc(-c2nc(N3CC4CCC(C3)O4)c3cnn(C4CCC5(CC4)OCCO5)c3n2)cc1 | 1.09 ± 0.18 | 0.816 ± 0.0014
21 | C[C@H](NP(=O)(OC[C@H]1O[C@@H](n2cc(F)c(=O)[nH]c2=O)C[C@@H]1O)Oc1cccc2ccccc12)C(=O)OCc1ccccc1 (stereo partly specified) [Fosifloxuridine nafalbenamide] | 1.02 ± 0.016 | 1.04 ± 0.05
22 | C=C1C(=O)O[C@@H]2C[C@@]3(C)CCC[C@H](C)C3=C[C@H]12 [Alantolactone] | 0.624 ± 0.15 | 0.307 ± 0.0014
23 | O[C@H]1[C@H]2c3cc4c(cc3CN3CCC(=C[C@@H]1O)[C@H]23)OCO4 [Lycorine] | 0.96 ± 0.09 | 0.969 ± 0.076

Row | SMILES | cell count (compound dose 1 µM) | cell count (compound dose 5 µM)
24 | Oc1c2ccccc2c2c3c(cccc13)N=N2 | 1.08 ± 0.17 | 0.808 ± 0.12
25 | CCCCC(CC)CNC(=N)NC(=N)NCCCCCCNC(=N)NC(=N)NCC(CC)CCCC (stereo unspecified) [Alexidine (dihydrochloride)] | 1.12 ± 0.081 | 0.509 ± 0.022
26 | CCCCCCc1ccc(O)cc1O | 1.09 ± 0.15 | 1.03 ± 0.096
27 | Cc1[nH]c(/C=C2\C(=O)Nc3ccc(S(=O)(=O)N(C)c4cccc(Cl)c4)cc32)c(C)c1C(=O)N1CCN(C)CC1 | 1.16 ± 0.18 | 1.14 ± 0.22
28 | CC(C)=CCC[C@](C)(O)C1CC=C(C)CC1 (stereo partly specified) | 1.04 ± 0.12 | 1.14 ± 0.13
29 | CCCCc1nc(C)c(CC(=S)N(C)C)c(=O)n1Cc1ccc(-c2ccccc2-c2nnn[nH]2)cc1 [Fimasartan] | 1.08 ± 0.016 | 1.09 ± 0.029
30 | COc1ccc(C(=O)C2CCN(CC(=O)N(Cc3nc4c(c(=O)[nH]3)COCC4)CC3CC3)CC2)cc1 | 0.936 ± 0.14 | 0.935 ± 0.11
31 | Nc1ncnc2c1c(-c1cnc3[nH]ccc3c1)nn2C1CCCC1 | 0.501 ± 0.02 | 0.0845 ± 0.0035
32 | CCCCC(=O)N(Cc1ccc(-c2ccccc2-c2nn[nH]n2)cc1)[C@H](C(=O)O)C(C)C.CCOC(=O)[C@H](C)C[C@@H](Cc1ccc(-c2ccccc2)cc1)NC(=O)CCC(=O)O [Sacubitril/Valsartan] | 1.08 ± 0.092 | 1.01 ± 0.18
33 | Cn1c(=O)n(CCC(C)(C)O)c2cc(Nc3nc(Cl)ncc3Cl)ccc21 | 1.08 ± 0.2 | 1.13 ± 0.076
34 | CC(C)=CC[C@H](O)C1=CC(=O)c2c(O)ccc(O)c2C1=O [(-)-Alkannin] | 1.11 ± 0.12 | 1.17 ± 0.22
35 | CCNC(=O)C#Cc1ccc2c(C(=Nc3ccc(CN(C)C)cc3)c3ccccc3)c(O)[nH]c2c1 | 1.31 ± 0.3 | 1.14 ± 0.15
36 | CN(C)CCCN1c2ccccc2CCc2ccccc21 | 1.02 ± 0.078 | 1.06 ± 0.14
37 | COc1ccc(/C=C/C(=O)c2c(-c3ccccc3)c3ccccc3[nH]c2=O)cc1 [Ceranib-2] | 1.01 ± 0.028 | 0.889 ± 0.1
38 | CC1(C)CC[C@]2(C(=O)n3cnc(-c4cccnc4)c3)CC[C@]3(C)[C@H](C(=O)C=C4[C@@]5(C)C=C(C#N)C(=O)C(C)(C)[C@@H]5CC[C@]43C)[C@@H]2C1 | 0.925 ± 0.15 | 0.009
39 | Clc1ccc(Nc2nnc(Cc3ccncc3)c3ccccc23)cc1 [Vatalanib (PTK787) 2HCl] | 1.12 ± 0.059 | 1.125 ± 0.011
40 | C/C=C1\[C@H]2C=C(C)C[C@]1(N)c1ccc(=O)[nH]c1C2 [(-)-Huperzine A] | 1.08 ± 0.11 | 1.13 ± 0.14
41 | CCOC(=O)[C@H](CCc1ccccc1)N[C@@H](C)C(=O)N1Cc2cc(OC)c(OC)cc2C[C@H]1C(=O)O [Moexipril (hydrochloride)] | 1.13 ± 0.17 | 1.03 ± 0.13
42 | COc1cc(/C=C/C(=O)CC(=O)/C=C/c2ccc(O)c(OC)c2)ccc1O | 1.01 ± 0.13 | 1.1 ± 0.1
43 | O=C1C(SCCO)=C(SCCO)C(=O)c2ccccc21 | 1.09 ± 0.1 | 0.007 ± 0.0014
44 | COC(=O)CC(NC(=O)OC(C)(C)C)C(=O)CF (stereo unspecified) | 1.01 ± 0.1 | 1.09 ± 0.13
45 | Cn1cnc([N+](=O)[O-])c1Sc1ncnc2[nH]cnc12 [Azathioprine] | 1.05 ± 0.16 | 1.14 ± 0.017
46 | S=C(NCc1ccc2c(c1)OCO2)N1CCN(c2ncnc3c2oc2ccccc23)CC1 [Amuvatinib (MP-470)] | 1.26 ± 0.27 | 1.11 ± 0.25

Row | SMILES | cell count (compound dose 1 µM) | cell count (compound dose 5 µM)
47 | COc1ccc(/C=C/C(=O)c2ccc(OC)c3c2OC(C)(C)C=C3)cc1 [Millepachine] | 1.08 ± 0.064 | 1.05 ± 0.12
48 | CN1C(=O)N[C@@H](Cc2c[nH]c3c(Cl)cccc23)C1=O [Necrostatin 2 (S enantiomer)] | 1.02 ± 0.089 | 1.13 ± 0.17
49 | CC1(C)CCC2=C(O1)c1ccccc1C(=O)C2=O [beta-LAPACHONE] | 0.989 ± 0.11 | 1.01 ± 0.089
50 | CCOC(=O)[C@@]1(CCCCCCOc2ccc(Cl)cc2)CO1 [Etomoxir (sodium salt)] | 1.03 ± 0.13 | 0.99 ± 0.041
51 | CCOC(=O)[C@@]1(CCCCCCOc2ccc(Cl)cc2)CO1 [Etomoxir] | 1.1 ± 0.29 | 1.19 ± 0.34
52 | Cn1c(Nc2ccc(C(F)(F)F)cc2)nc2cc(Oc3ccnc(-c4ncc(C(F)(F)F)[nH]4)c3)ccc21 | 1.15 ± 0.088 | 1.11 ± 0.083
53 | C[C@H](CCC(=O)O)[C@H]1CC[C@H]2[C@@H]3CC[C@@H]4C[C@H](O)CC[C@]4(C)[C@H]3CC[C@]12C [Lithocholic acid] | 1.07 ± 0.17 | 1.21 ± 0.15
54 | Cc1cc(O)c(-c2ccc([C@@H](C)CN(C)C)cc2)c2c1[nH]c(=O)c1sccc12 [OTS964 (hydrochloride)] | 0.77 ± 0.014 | 0.639 ± 0.053
55 | CCOc1cc(C(C)(C)C)ccc1C1=N[C@@](C)(c2ccc(Cl)cc2)[C@@](C)(c2ccc(Cl)cc2)N1C(=O)N1CCN(CCCS(C)(=O)=O)CC1 | 1.02 ± 0.098 | 1.01 ± 0.087
56 | C[C@H]1Oc2cc(cnc2N)-c2c(nn(C)c2C#N)CN(C)C(=O)c2ccc(F)cc21 [Lorlatinib] | 1.07 ± 0.16 | 1.02 ± 0.17
57 | O=C1NC(=O)[C@@H](c2cn3c4c(cccc24)CCC3)[C@@H]1c1c[nH]c2ccccc12 [Tivantinib] | 1.13 ± 0.066 | 0.997 ± 0.08
58 | CCc1cnn2c(NCc3ccc[n+]([O-])c3)cc(N3CCCC[C@H]3CCO)nc12 [Dinaciclib] | 0.99 ± 0.047 | 1.03 ± 0.17
59 | COc1ccc(-c2cc(=O)c3c(OC)c(OC)c(OC)cc3o2)cc1OC [Sinensetin] | 0.959 ± 0.13 | 0.965 ± 0.086
60 | CC(C(=O)Nc1cccc(/N=C/c2c(O)ccc3ccccc23)c1)c1ccccc1 (stereo unspecified) [Salermide] | 1.08 ± 0.15 | 1.03 ± 0.15
61 | COc1cccc(-c2cc(F)ccc2[C@H]2Cc3nc(N)nc(C)c3C(=O)N2)n1 | 1.09 ± 0.17 | 1.03 ± 0.19
62 | COc1nc(N)nc2c1ncn2[C@@H]1O[C@H](CO)[C@@H](O)[C@@H]1O [Nelarabine] | 1.22 ± 0.23 | 1.1 ± 0.03
63 | O=C(Nc1cccc(Nc2ncc(Br)c(NCCc3cnc[nH]3)n2)c1)N1CCCC1 | 1.08 ± 0.023 | 1.24 ± 0.0064
64 | C[C@H](CCC(=O)NCCS(=O)(=O)O)[C@H]1CC[C@H]2[C@@H]3[C@@H](O)C[C@@H]4C[C@H](O)CC[C@]4(C)[C@H]3CC[C@]12C [Tauroursodeoxycholate (Sodium)] | 1.11 ± 0.19 | 1.1 ± 0.073
65 | Cc1nc(-c2nc(-c3ccc(OC(F)(F)F)cc3)no2)nn1Cc1cccc(N2CCC(S(C)(=O)=O)CC2)c1 | 1.14 ± 0.17 | 1.12 ± 0.069
66 | O=C1CCC(N2C(=O)c3ccccc3C2=O)C(=O)N1 (stereo unspecified) | 1.19 ± 0.19 | 1.07 ± 0.011
67 | Clc1ccc(C(Cn2ccnc2)OCc2csc3c(Cl)cccc23)c(Cl)c1 (stereo unspecified) [Sertaconazole (nitrate)] | 1.13 ± 0.11 | 1.03 ± 0.11
68 | C[C@H]1[C@H](OC(=O)CCC(=O)O)O[C@@H]2O[C@@]3(C)CC[C@H]4[C@H](C)CC[C@@H]1[C@@]24OO3 [Artesunate] | 1.07 ± 0.18 | 1.17 ± 0.15
